How the values were obtained:
[1] = system: murine tumor, tissue, and plasma conditioned media; assay: Ex vivo cleavage in murine tumor, tissue, and plasma, CTLA4 ELISA; type: in vitro ADME
Description: In another study, ex vivo cleavage in murine tumor, tissue, and plasma was assessed using a CTLA4 ELISA assay. This included the following murine models: C57/B16 (N=9), MC38 in wild type mice (N=9), MC38 in hCTLA4 mice (N=5), MB49 in wild type mice (N=6), MCA205 in wild type mice (N=4), and B16 in wild type mice (N=4). Cleavage in tumors, spleen, liver, kidney, and plasma was assessed. Plasma samples were pooled. Frequency of cleavage and the percentage of the molecule cleaved (median) were calculated.

[2] = system: human conditioned media from human tumors (colon tumors, lung tumors)

B1: Antibody 2-10: masked Antibody 2-6: mask CPFPALELC, non-cleavable peptide GSGGSG; SEQ ID NO: 427 and 421; negative control (protein)
light: ACPFPALELCGGGSSGGSGGSGGSGSGGEIVLTQSPDFQSVTPKEKVTITCSANSALSYMYWYQQKPDQSPKLWVHGTSNLASGVPSRFSGSGSGTDFTLTINSLEAEDAATYYCHHWSNTQWTFGGGTKVEIKRTVAAPSVFIFPPSDEQLKSGTASVVCLLNNFYPREAKVQWKVDNALQSGNSQESVTEQDSKDSTYSLSSTLTLSKADYEKHKVYACEVTHQGLSSPVTKSFNRGEC
heavy: QVQLVQSGAEVKKPGSSVKVSCKASGYTFTNYFMNWVRQAPGQGLEWMGRVDPEQGRADYAEKFKKRVTITADKSTSTAYMELSSLRSEDTAVYYCARRAMDNYGFAYWGQGTLVTVSS[human IgG1 constant region with changes left out here]
5%: Percentage (%) cleaved molecule ([1]; C57/B16-wt, Plasma (n = 2))
7%: Percentage (%) cleaved molecule ([1]; MB49-wt, Liver (n = 6))
1%: Percentage (%) cleaved molecule ([1]; B16-wt, Liver (n = 4)) | Percentage (%) cleaved molecule ([1]; MB49-wt, Kidney (n = 6)) | Percentage (%) cleaved molecule ([1]; MC38-wt, Kidney (n = 9)) | Percentage (%) cleaved molecule ([1]; MC38-wt, Liver (n = 9)) | Percentage (%) cleaved molecule ([1]; MCA205-wt, Kidney (n = 4))
3%: Percentage (%) cleaved molecule ([1]; B16-wt, Kidney (n = 4)) | Percentage (%) cleaved molecule ([1]; C57/B16-wt, Kidney (n = 9)) | Percentage (%) cleaved molecule ([1]; C57/B16-wt, Liver (n = 9)) | Percentage (%) cleaved molecule ([1]; MC38-hCTLA4, Kidney (n = 5)) | Percentage (%) cleaved molecule ([1]; MC38-wt, Spleen (n = 9))
15%: Percentage (%) cleaved molecule ([1]; MB49-wt, Tumor (n = 6))
2%: Percentage (%) cleaved molecule ([1]; B16-wt, Spleen (n = 4)) | Percentage (%) cleaved molecule ([1]; C57/B16-wt, Spleen (n = 9)) | Percentage (%) cleaved molecule ([1]; MC38-hCTLA4, Liver (n = 5))
0%: Percentage (%) cleaved molecule ([1]; B16-wt, Plasma (n = 1)) | Percentage (%) cleaved molecule ([1]; B16-wt, Tumor (n = 4)) | Percentage (%) cleaved molecule ([1]; MB49-wt, Plasma (n = 1)) | Percentage (%) cleaved molecule ([1]; MB49-wt, Spleen (n = 6)) | Percentage (%) cleaved molecule ([1]; MC38-hCTLA4, Plasma (n = 1)) | Percentage (%) cleaved molecule ([1]; MC38-hCTLA4, Spleen (n = 5)) | Percentage (%) cleaved molecule ([1]; MC38-hCTLA4, Tumor (n = 5)) | Percentage (%) cleaved molecule ([1]; MC38-wt, Plasma (n = 1)) | Percentage (%) cleaved molecule ([1]; MC38-wt, Tumor (n = 9)) | Percentage (%) cleaved molecule ([1]; MCA205-wt, Liver (n = 4)) | Percentage (%) cleaved molecule ([1]; MCA205-wt, Plasma (n = 1)) | Percentage (%) cleaved molecule ([1]; MCA205-wt, Spleen (n = 4)) | Percentage (%) cleaved molecule ([1]; MCA205-wt, Tumor (n = 4))
4%: percentage (%) of cleavage / molecules cleaved, ELISA [2]

Source: patent US20220073613A1, “ACTIVATABLE MASKED ANTI-CTLA4 BINDING PROTEINS” (Xilio Development, Inc., priority 2018, published 2022)
